Laboratory results taken from article PMC2441632.
Results are given in words; binding and its absence hold for the method and conditions named. For part of these data: Binding seen in cells or lysates may run through a third protein. Some binding calls cover weakened binding; strength is not graded here. For part of these data: Sequences can lack the tags named with a protein. Blank lines part the entries; values can stand above or below the binder they belong to.

What was measured:
[1] = target: T1, Dmp53C (amino acids 277-385) fused to lexA DNA binding domain (Drosophila melanogaster) (UniProt Q9N6D8); assay: two-hybrid; pairwise: lexA-DBD fusions co-introduced into yeast with DmTAF3 514-924 fused to Gal4 AD; His complementation and β-galactosidase filter assay
T1 sequence: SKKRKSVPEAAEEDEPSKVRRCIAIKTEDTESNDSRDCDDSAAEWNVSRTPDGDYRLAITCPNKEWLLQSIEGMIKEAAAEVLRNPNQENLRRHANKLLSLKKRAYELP

[2] = target: T2, Dmp53C2 (amino acids 349-385) fused to lexA DNA binding domain (Drosophila melanogaster) (UniProt Q9N6D8); assay: as above
T2 sequence: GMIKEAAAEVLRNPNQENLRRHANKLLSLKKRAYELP

[3] = target: T3, Drosophila ADA2A fused to lexA DNA binding domain (Drosophila) (UniProt Q7KSD8); assay: as above
T3 sequence: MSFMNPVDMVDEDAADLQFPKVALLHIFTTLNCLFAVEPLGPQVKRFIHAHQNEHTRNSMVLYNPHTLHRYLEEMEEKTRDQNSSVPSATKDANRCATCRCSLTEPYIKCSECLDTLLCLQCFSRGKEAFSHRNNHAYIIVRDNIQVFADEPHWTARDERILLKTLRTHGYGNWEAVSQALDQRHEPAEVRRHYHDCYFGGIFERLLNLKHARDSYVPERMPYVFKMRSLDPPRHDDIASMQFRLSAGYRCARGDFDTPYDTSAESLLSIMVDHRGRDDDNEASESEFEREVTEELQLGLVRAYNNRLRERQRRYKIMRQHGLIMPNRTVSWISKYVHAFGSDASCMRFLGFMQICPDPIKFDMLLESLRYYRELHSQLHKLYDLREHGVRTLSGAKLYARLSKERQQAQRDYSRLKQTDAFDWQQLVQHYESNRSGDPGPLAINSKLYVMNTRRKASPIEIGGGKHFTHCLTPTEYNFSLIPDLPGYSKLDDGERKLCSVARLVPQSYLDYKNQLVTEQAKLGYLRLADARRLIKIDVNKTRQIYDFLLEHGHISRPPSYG

[4] = target: T4, Dmp53C1 (amino acids 277-351) fused to lexA DNA binding domain (Drosophila melanogaster) (UniProt Q9N6D8); assay: as above
T4 sequence: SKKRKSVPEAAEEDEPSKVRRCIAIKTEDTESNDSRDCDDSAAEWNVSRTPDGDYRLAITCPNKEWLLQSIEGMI

[5] = target: T5, Dmp53ΔNΔC (amino acids 47-294) fused to lexA DNA binding domain (Drosophila melanogaster) (UniProt Q9N6D8); assay: as above
T5 sequence: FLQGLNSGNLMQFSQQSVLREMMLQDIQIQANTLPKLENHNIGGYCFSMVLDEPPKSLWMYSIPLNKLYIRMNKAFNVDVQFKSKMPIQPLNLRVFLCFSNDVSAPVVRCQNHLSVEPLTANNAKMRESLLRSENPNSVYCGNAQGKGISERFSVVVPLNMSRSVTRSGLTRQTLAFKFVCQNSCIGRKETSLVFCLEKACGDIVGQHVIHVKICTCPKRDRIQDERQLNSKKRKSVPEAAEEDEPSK

[6] = target: T6, Dmp53ΔN (amino acids 47-385) fused to lexA DNA binding domain (Drosophila melanogaster) (UniProt Q9N6D8); assay: two-hybrid; library screen: lexA-DBD-Dmp53ΔN as bait, Drosophila embryonic cDNA library in pACT2; His complementation and β-galactosidase colony-lift filter assay
T6 sequence: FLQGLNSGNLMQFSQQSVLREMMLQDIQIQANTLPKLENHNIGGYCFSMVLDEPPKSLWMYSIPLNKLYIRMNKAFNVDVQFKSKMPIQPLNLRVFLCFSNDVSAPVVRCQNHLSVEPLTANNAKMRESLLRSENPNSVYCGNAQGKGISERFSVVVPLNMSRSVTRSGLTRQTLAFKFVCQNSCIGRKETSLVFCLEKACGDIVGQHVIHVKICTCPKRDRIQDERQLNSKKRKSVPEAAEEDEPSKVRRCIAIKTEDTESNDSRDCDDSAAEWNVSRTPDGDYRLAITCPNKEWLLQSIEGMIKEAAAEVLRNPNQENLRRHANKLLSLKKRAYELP

[7] = target: T7, GST-Dmp53C (Drosophila melanogaster) (UniProt Q9N6D8); assay: pull-down; GST or GST-Dmp53C on glutathione beads, incubated with in vitro translated 3H-leucine DmTAF3(514-924); autoradiography; only the target purified
T7 sequence: T1 sequence

[8] = target: GST-p53 (human) (UniProt P04637); assay: pull-down; GST, GST-Dmp53C or GST-p53 on glutathione sepharose beads, Sf9 extract with mTAF3, over night at 4°C; wash with 400 mM KCl; Western blot with anti-TAF3; only the target purified
[9] = target: T7, GST-Dmp53C (Drosophila melanogaster); assay: as above
[10] = target: GST-p53 (human) (UniProt P04637); assay: pull-down; GST, GST-Dmp53C or GST-p53 on glutathione sepharose beads, Sf9 extract with mTAF3, over night at 4°C; wash with 200 mM KCl; Western blot with anti-TAF3; only the target purified
[11] = target: T7, GST-Dmp53C (Drosophila melanogaster); assay: as above

binding [1]: binds | binding [2]: binds weakly | binding [3]: no binding | binding [4]: binds | binding [5]: binds weakly | binding [6]: binds
B1: DmTAF3 amino acids 514 to 924 fused to Gal4 activation domain (domain or fragment, UniProt Q9XZU7 514-924)
chain: MTPSALISLPSGTTITPTPSLGLNSENKNVPSMKINPCNIFDGTIPLTKAGVEMSIIDSPKPKKRGRKPGGKNLIKQTNVISQPLINKVERKKSSQAITLPLSSSPMIITQSSLNVSPPTEPLNLCNTEQPSNNFLSNLYAKEKKDRKKYKSLPENVMQLDKSCSPEKASTLHNSIRPTKQNNDVQCSDKFVTISNALSNASIYPGIQTGMVPLLPLLQFPPRPGLIPTGPGLFSAVTGLVGFGNHGNRIPISPFIDYPGPEESVADTVRCPPIKDSPVTDSDQFLSRSSTQTDLQMDRNYCNVAPLVPDSMKFAECKSVSCASTILENPSAQATSKINTKPLLEASGNPDDPIEVSDDSDESMHNRQMVQRKTPISSPTYVKTSFAELNPSSFTSAASNPEEKSKIDLRN

binding [7]: binds
B2: DmTAF3 (aa 514-924), in vitro translated (domain or fragment, UniProt Q9XZU7 514-924)
chain: B1 chain
modifications: 3H-labelled leucine

binding [6]: binds
B3: DmTAF3 amino acids 738 to 1061 (clone 11), two-hybrid library clone (domain or fragment, UniProt Q9XZU7 738-1061)
chain: GLIPTGPGLFSAVTGLVGFGNHGNRIPISPFIDYPGPEESVADTVRCPPIKDSPVTDSDQFLSRSSTQTDLQMDRNYCNVAPLVPDSMKFAECKSVSCASTILENPSAQATSKINTKPLLEASGNPDDPIEVSDDSDESMHNRQMVQRKTPISSPTYVKTSFAELNPSSFTSAASNPEEKSKIDLRNIVSLSSNEPLKKFKKLVKQSFPDVKSVPHTPASHSSFPQFNLPNFMGGDKFSLAGGADLIPLSRVSDSEYSSKIVPFSSLGGTIPNQIKISEEHNIFSTFSNYEDITITPTGLTSLEPKMRKHHKKLKKVKEGKNKK

binding [8]: binds | binding [9]: binds | binding [10]: binds | binding [11]: binds
B4: full length murine TAF3 (mTAF3), Sf9 extract (protein, UniProt Q5HZG4 1-932)
chain: MCESYSRSLLRVSVAQICQALGWDSVQLSACHLLTDVLQRYLQQLGRGCHRYSELYGRTDPILDDVGEAFQLMGVNLHELEDYIHNIEPVTFPHQIPSFPVSKNNVLQFPQPGSKDAEERKDYIPDYLPPIVSSQEEEEEEQVPTDGGTSAEAMQVPLEEDDEMEEEEVINDENFLGKRPLDSPEVEEMPSMKRPRLLSTKGDSLDVVLLEAREPLSSINPQKTPPVLSPVRVQDRADLAPPSPQPPMLAPFAKSQLPIAKPLETKSFTPKTKTKASSPGQKTKSPKAALSPARLGSPIRSPKTIPKEKKSPGRSKSPKSPKSPKIVAHVPQTPVRPETPNRTPSAMVVEKTVKETIPVMKPTQTPPEVVKLNIEMQPKKPVVTDKTIDDSIDAVIARACAEREPDPFEFSSGSESEGDTFTSPKRISGSECATPKASTSSNNFTKSLATPLPLSSGTSSSDNSWTMDASIDEVVRKAKLGAPSNMPPTFPYISSPSISPPTPEPLHKGYEEKAKLPSSVDVKKKLKKELKTKLKKKEKQRDRERERERNKERSKEKDKMREREKEKEAGKELKYPWRELMKDEDSDPYKFKIKEFEDIDAAKVRLKDGIVRREREKHKDKKKDRERSKREKDKRERERLKEKNREDKIKAPPTQLVLPPKEMALPLFSPSAVRVPAMLPAFSPMLPEKLFEEKEKPKEKERKKDKKEKKKKKEKEKEKEKKEREREKERREREKREKEKEKHKHEKIKVEPVIPAPSPVIPRLTLRVGAGQDKIVISKVVPAPEAKPAPSLNRPKTPPPAPVPIPVRVSPTPLQPPLLTQAAVCPALMPSPAPALSGIGSAKAPVRSVVTETVSTYVIRDEWGNQIWICPGCNKPDDGSPMIGCDDCDDWYHWPCVGIMAAPPEEMQWFCPKCANKIKKDKKHKKRKHRAH
